± gives the standard deviation of the averaged measurements. The full ranking holds about 33,000 sequences; the median of “E-score (dimensionless, -0.5 to 0.5)” is about -0.049, and the highest 2% start at about 0.37. The list shows a part of the results.
Test system: T1, PmTbr T-box DNA-binding domain (GST fusion)
T1 sequence: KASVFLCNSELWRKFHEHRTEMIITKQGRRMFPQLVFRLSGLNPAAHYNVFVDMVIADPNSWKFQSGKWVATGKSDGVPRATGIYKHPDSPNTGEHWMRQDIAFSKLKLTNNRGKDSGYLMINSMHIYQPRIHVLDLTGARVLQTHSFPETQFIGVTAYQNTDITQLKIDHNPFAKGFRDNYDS
Experiment: PBM E-score of 8-mer (E-score (dimensionless, -0.5 to 0.5)); Tbr is Tbrain of the sea star Patiria miniata (Pm) or the sea urchin Strongylocentrotus purpuratus (Sp); higher = stronger binding preference; most listed sequences are background and not binding sites
Settings: the construct has about 5 more residues each side
Procedure, shortened: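 GST-fused Tbr T-box DNA-binding domains (the whole T-box plus about five flanking residues) were expressed in BL21 E. coli at 20 °C and purified by glutathione affinity chromatography. Universal Agilent oligonucleotide arrays were made double-stranded by primer extension, incubated with 200 nM protein in PBS (pH 7.5), then scanned and quantified. Every ungapped 8-mer was scored from probe intensities. The Universal PBM Analysis Suite gave each word an enrichment E-score, averaged over duplicate arrays.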

| Sequence | PBM E-score of 8-mer |
| --- | --- |
| CAAGGAGC | -0.145 ± 0.1 |
| AAGGATCG | -0.0556 ± 0.0016 |
| CTGCTACA | -0.0242 ± 0.021 |
| CGCGGAGA | 0.0762 ± 0.027 |
| AAATGACA | 0.146 ± 0.0036 |
| ATTCCTGA | -0.189 ± 0.091 |
| TCGACTAA | -0.00758 ± 0.0041 |
| CCGTGTCA | 0.236 ± 0.0063 |
| CAAACTTC | -0.211 ± 0.1 |
| AGGTACTA | -0.00624 ± 0.01 |
| CCCTGGGC | -0.113 ± 0.0098 |
| TCGAGACA | 0.0196 ± 0.017 |
| CCGGGGCC | -0.21 ± 0.014 |
| CCCCCCCC | -0.0147 ± 0.067 |
| AAAACAGC | 0.191 ± 0.027 |
| AGTATCCG | -0.314 ± 0.053 |
| ATATCCGA | 0.00666 ± 0.034 |
| ACGGAGTC | -0.0701 ± 0.05 |
| CCCCGGTA | -0.214 ± 0.043 |
| CACCCCCC | 0.165 ± 0.06 |
| TGTCGCAA | 0.263 ± 0.018 |
| AACCCTAG | 0.158 ± 0.018 |

| Sequence | PBM E-score of 8-mer |
| --- | --- |
| CACGGACC | -0.137 ± 0.0039 |
| GTCCGATA | -0.0905 ± 0.033 |
| CCGTAGTC | -0.192 ± 0.042 |
| GAGGACGC | -0.0963 ± 0.027 |
| GAATGAGC | -0.256 ± 0.019 |
| GAGCTGGC | -0.0285 ± 0.0058 |
| ATTGTGGC | 0.0517 ± 0.05 |
| AAACGACC | 0.0442 ± 0.019 |
| AAACCTCA | -0.127 ± 0.083 |
| ACACAGGA | -0.0972 ± 0.037 |
| CGTCCAGC | -0.151 ± 0.028 |
| GCATGAGC | -0.0885 ± 0.018 |
| GCTCCAAA | -0.106 ± 0.013 |
| ATCCTATG | -0.219 ± 0.021 |
| AACGAGCA | -0.0129 ± 0.056 |
| ATTAATAA | -0.175 ± 0.071 |
| ATCTCCGG | 0.0566 ± 0.032 |
| TGAGGGAA | -0.0537 ± 0.066 |
| ATTTAAGG | -0.162 ± 0.086 |
| AATCATGG | -0.0502 ± 0.028 |
| AATAGTCA | 0.0326 ± 0.014 |
| AGCAGGCC | -0.22 ± 0.023 |

| Sequence | PBM E-score of 8-mer |
| --- | --- |
| CTACGCTA | -0.0611 ± 0.044 |
| AACGTCTC | -0.0114 ± 0.06 |
| ATCTCGAA | -0.141 ± 0.017 |
| ATTTCTGG | -0.14 ± 0.0059 |
| GGAGGATA | -0.266 ± 0.023 |
| CTGTGAGC | 0.136 ± 0.034 |
| TACACGTA | -0.0249 ± 0.057 |
| CCCTACAC | -0.0629 ± 0.069 |
| CGTCATCA | 0.175 ± 0.013 |
| AATGAGGT | 0.271 ± 0.019 |
| CAACGCAC | 0.047 ± 0.033 |
| ATAATAGC | -0.0817 ± 0.019 |
| CTAGTCTC | 0.0185 ± 0.024 |
| ACGTGAAC | 0.112 ± 0.051 |
| CGTGGAAC | 0.147 ± 0.0015 |
| ATTGTGGA | 0.0181 ± 0.017 |
| CCATTCAG | -0.0387 ± 0.0073 |
| CAGATGCC | -0.314 ± 0.021 |
| GACGGGGA | -0.0268 ± 0.028 |
| CGCGGGCC | 0.00504 ± 0.059 |
| ATGTAGTC | -0.282 ± 0.024 |
| CACTACAG | 0.00051 ± 0.048 |

| Sequence | PBM E-score of 8-mer |
| --- | --- |
| GGTAACCA | -0.0769 ± 0.024 |
| CGGAGTAC | -0.162 ± 0.11 |
| GCTTTGAA | -0.183 ± 0.068 |
| TGATCCCA | -0.112 ± 0.056 |
| AAAAGCCA | -0.0672 ± 0.035 |
| CCCGTGAG | 0.0245 ± 0.051 |
| CCCGCAGG | 0.0104 ± 0.039 |
| TAGTACAA | 0.0583 ± 0.059 |
| CACTTCTA | 0.329 ± 0.03 |
| CTGATCAC | 0.109 ± 0.069 |
| AAGAACGA | -0.309 ± 0.022 |
| CGCACTTA | 0.293 ± 0.022 |
| TCGGTACA | -0.148 ± 0.058 |
| ACGTCAGG | -0.133 ± 0.027 |
| CATCGGGG | -0.1182 ± 0.00077 |
| AAAGGCTG | -0.0206 ± 0.023 |
| AGGTCCTA | -0.00696 ± 0.067 |
| GCTTGGTA | -0.112 ± 0.032 |
| CATGGTAC | -0.0102 ± 0.01 |
| GGATGGGA | -0.263 ± 0.062 |
